Source: PubChem BioAssay AID504332 (National Center for Advancing Translational Sciences (NCATS), 2011)
The campaign covered roughly 350,000 compounds. About 31,000 (8.9%) were called active. This list was built around the results that the source calls inconclusive (neither active nor inactive); the mix of calls is not that of the screen. Calls come from the whole dose curve; as a rule, active = well fitted inhibition curve with a large enough effect; inconclusive = small, poorly fitted or top-dose-only effect; inactive = no such curve, though single readings can be large or run the other way. Where the call is inconclusive, the potency comes from a doubtful curve fit.

Biological target: Histone-lysine N-methyltransferase EHMT2 (Homo sapiens) (UniProt Q96KQ7)
Assay: qHTS Assay for Inhibitors of Histone Lysine Methyltransferase G9a; note: nearly all actives have a fitted effect of over 75% in size
Details: G9a H3K9 monomethylation, AlphaScreen, 2 h; activity, negative = inhibition: at 59 µM (top of the series) unless noted
In short: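 Quantitative HTS format: methyltransferase activity on a biotin-tagged H3K9 peptide is measured by AlphaScreen, using a rabbit anti-monomethyl-H3K9 antibody with streptavidin donor and anti-IgG acceptor beads. Final levels are 20 nM enzyme, 500 nM peptide, 20 uM SAM; 2 h RT.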
% is set by controls: 0 for no effect and ±100 for the full control effect; potency is the fitted concentration of half-maximal effect; tags give direction and shape of the fitted curve.

UniProt Q96KQ7, sequence (Q96KQ7 whole entry, looked up): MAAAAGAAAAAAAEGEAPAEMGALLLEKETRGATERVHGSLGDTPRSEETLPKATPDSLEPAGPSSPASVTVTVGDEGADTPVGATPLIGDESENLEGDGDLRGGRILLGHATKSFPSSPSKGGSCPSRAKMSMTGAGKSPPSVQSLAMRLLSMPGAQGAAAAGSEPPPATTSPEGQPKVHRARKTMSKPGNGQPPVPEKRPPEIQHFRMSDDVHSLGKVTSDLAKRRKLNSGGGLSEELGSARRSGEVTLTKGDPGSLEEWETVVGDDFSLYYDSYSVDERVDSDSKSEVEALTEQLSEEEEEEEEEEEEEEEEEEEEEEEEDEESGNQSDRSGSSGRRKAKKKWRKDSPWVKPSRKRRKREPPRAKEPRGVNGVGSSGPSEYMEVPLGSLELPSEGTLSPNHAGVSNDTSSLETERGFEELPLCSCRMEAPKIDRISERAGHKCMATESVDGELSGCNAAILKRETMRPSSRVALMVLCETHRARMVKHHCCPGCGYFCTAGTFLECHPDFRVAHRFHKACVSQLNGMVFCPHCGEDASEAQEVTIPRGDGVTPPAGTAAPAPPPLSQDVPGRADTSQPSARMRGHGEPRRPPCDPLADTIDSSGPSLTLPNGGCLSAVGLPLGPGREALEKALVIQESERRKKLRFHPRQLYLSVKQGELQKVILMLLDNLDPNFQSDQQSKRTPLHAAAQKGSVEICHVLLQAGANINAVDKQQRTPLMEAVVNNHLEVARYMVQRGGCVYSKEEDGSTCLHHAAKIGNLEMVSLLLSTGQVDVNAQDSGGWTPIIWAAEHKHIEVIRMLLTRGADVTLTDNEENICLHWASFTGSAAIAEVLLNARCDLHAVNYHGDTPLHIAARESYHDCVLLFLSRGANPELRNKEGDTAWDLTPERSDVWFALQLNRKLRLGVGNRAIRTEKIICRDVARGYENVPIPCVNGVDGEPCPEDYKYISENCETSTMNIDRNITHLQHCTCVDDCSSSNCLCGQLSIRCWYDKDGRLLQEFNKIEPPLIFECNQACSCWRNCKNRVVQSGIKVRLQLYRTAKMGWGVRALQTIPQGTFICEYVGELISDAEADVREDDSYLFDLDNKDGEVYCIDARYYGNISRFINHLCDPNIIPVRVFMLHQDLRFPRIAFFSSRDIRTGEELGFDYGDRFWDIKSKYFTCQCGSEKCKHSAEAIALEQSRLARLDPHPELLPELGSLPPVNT

Row | Structure (SMILES) | Potency | activity, negative = inhibition
1 | Brc1ccc2[nH]cc(/C=N/N3CCCCC3)c2c1 | inconclusive: 39.8 µM [inhibitor, single point] | –
2 | CCOC(=O)c1cccc(NC2c3ccccc3C(=O)N2Cc2ccco2)c1 (configuration not stated) | inconclusive: 35.5 µM [inhibitor, single point] | –
3 | O=C1OC(c2ccc(Cl)cc2)=N/C1=C\N1CC2CC(C1)c1cccc(=O)n1C2 (configuration not stated) | inconclusive: 50.1 µM [inhibitor, partial curve, poor fit] | –
4 | Nc1c(C(=O)Nc2cccc(Br)c2)sc2nc3c(cc12)N1CCC3CC1 | active: 12.6 µM | –
5 | CCOc1cc(CNCCc2ccccc2F)ccc1OC | active: 8.91 µM | –
6 | c1cncc(C2CCCCN2Cc2ccc3c(c2)OCO3)c1 (configuration not stated) | active: 79.4 µM | –
7 | COC(=O)C1=C(c2ccc(F)cc2OCc2ccccc2)C[C@@H]2CC[C@H]1N2C(=O)NCc1ccc(OC)c(OC)c1 | – | inactive: -8.71% [at 0.501 µM]
8 | COc1ccc(-n2[nH]c3c4c(ncc3c2=O)CCCCC4)cc1 | inconclusive: 17.8 µM [inhibitor, partial curve, poor fit] | –
9 | CCCN[C@@H]1C(=O)N2C(C(=O)OCCC)=C(C)CS[C@H]12 | inconclusive: 79.4 µM [inhibitor, single point] | –
10 | CC(N)Cc1cn(Cc2ccccc2)c2ccccc12 (configuration not stated) | inconclusive: 79.4 µM [inhibitor, single point] | –
11 | CC(C)c1ccc(-n2c(O)c(C=NC(CCS(C)=O)C(=O)O)c(=O)[nH]c2=S)cc1 (configuration not stated) | inconclusive: 56.2 µM [inhibitor, single point] | –
12 | CSc1ncc(/C=C2/C(=O)NC(=O)N(C3CCCCC3)C2=O)cn1 | inconclusive: 1.41 µM [inhibitor, single point] | –
13 | O=c1c2ccccc2nc(-c2ccoc2)n1-c1ccccc1 | inconclusive: 89.1 µM [inhibitor, single point] | –
14 | OC(CC#CCN1CCCCCC1)(c1ccccc1)C1CCCC1 (configuration not stated) | inconclusive: 89.1 µM [inhibitor, single point] | –
15 | CCN1C(=O)/C(=C/c2ccc(N(CC)CC)cc2OC)C(=O)NC1=S | active: 35.5 µM | –
16 | COc1ccc(C2=CC(c3ccc(OC)c(OC)c3)c3c(c4ccccc4oc3=O)O2)cc1OC (configuration not stated) | – | inconclusive: -54.8% [inhibitor]
17 | CN1C(=O)C(=CN2CCN(C(=O)c3ccco3)CC2)C(=O)N(C)C1=S | inconclusive: 35.5 µM [inhibitor, single point] | –
18 | ON1C2CCCCC2N(O)C1c1ccccc1F (configuration not stated) | inconclusive: 50.1 µM [inhibitor, partial curve, poor fit] | –
19 | Cn1cccc1CNCCc1ccccc1F | inconclusive: 35.5 µM [inhibitor, single point] | –
20 | Cn1cccc1/C=C1\C(=O)NC(=O)N(CCC2=CCCCC2)C1=O | – | inactive: -5.93%
21 | CCCN1CCC[C@@H]2Cc3cn[nH]c3C[C@H]21 | – | inactive: -2.65%

Row | Structure (SMILES) | Potency | activity, negative = inhibition
22 | CC(C)=CCC/C(C)=C/CN(CC(C)O)CC(C)O (configuration not stated) | active: 10 µM | –
23 | Cc1cccc(N2C(=O)NC(=O)/C(=C/c3ccc([N+](=O)[O-])o3)C2=O)c1 | inconclusive: 2.82 µM [inhibitor, partial curve, poor fit] | –
24 | CCOc1ccccc1NC(=O)CCn1cccc1 | inconclusive: 89.1 µM [inhibitor, single point] | –
25 | Cn1c(=O)c2c(-c3ccccc3)n3c(c2n(C)c1=O)C(c1cc(Cl)ccc1O)Nc1ccccc1-3 (configuration not stated) | inconclusive: 12.6 µM [inhibitor, partial curve, poor fit] | –
26 | O=C(NN1C(=O)C2C3C=CC(C4CC34)C2C1=O)c1cccc(Br)c1 (configuration not stated) | inconclusive: 89.1 µM [inhibitor, single point] | –
27 | Cn1c(SCC(=O)N2CCOCC2)nnc1-c1cccc(NC(=O)c2ccccc2)c1 | active: 10 µM | –
28 | Cc1ccc(C2CN(C)CC2C(=O)c2ccc(F)cc2)cc1 (configuration not stated) | – | inactive: 7.75% [at 102 µM]
29 | O=c1[nH]c(=O)n(-c2ccccc2F)c(O)c1/C=C1\C=Nc2ccccc21 | inconclusive: 56.2 µM [inhibitor, partial curve, poor fit] | –
30 | N#CC1=C(N)Oc2n[nH]c(-c3cccs3)c2C1c1ccsc1 (configuration not stated) | inconclusive: 12.6 µM [inhibitor, partial curve, poor fit] | –
31 | COc1ccc2c(c1)c(C(=O)CN1CCC3(CC1)OCCO3)c(C)n2Cc1ccccc1 | inconclusive: 89.1 µM [inhibitor, single point] | –
32 | COP(=O)(OC)C1(Nc2ccc(C)cc2)CCCCC1 | inconclusive: 89.1 µM [inhibitor, single point] | –
33 | CCCCn1c(O)c(C(CC)=NCCN2CCCCC2)c(=O)[nH]c1=O | inconclusive: 35.5 µM [inhibitor, single point] | –
34 | O=c1c2cc(Cl)cc(Cl)c2nc(CN2CCOCC2)n1-c1ccccc1F | inconclusive: 31.6 µM [inhibitor, single point] | –
35 | CCN(CC)P(=O)(/C=C(\Cl)c1ccccc1)/C=C(\Cl)c1ccccc1 | inconclusive: 50.1 µM [inhibitor, partial curve] | –
36 | Cc1ccc(CN2C(=O)NC(=O)C3(Cc4c(nc5ccccn5c4=O)N4CCCCCC43)C2=O)cc1 (configuration not stated) | inconclusive: 7.94 µM [inhibitor, partial curve, poor fit] | –
37 | CCOCCSc1nc2c(c(-c3cccs3)c1C#N)CC/C2=C/c1cccs1 | active: 28.2 µM | –
38 | O=C1c2ccccc2C(=O)C1C(=O)C(c1ccccc1)c1ccccc1 | inconclusive: 2.51 µM [inhibitor, partial curve, poor fit] | –
39 | CC(=O)c1ccc(NC2CC(O)C(O)CO2)cc1 (configuration not stated) | inconclusive: 89.1 µM [inhibitor, single point] | –
40 | COc1ccc(-c2nc(CN3C(=O)CN=C(c4ccccc4)c4ccccc43)c(C)o2)cc1 | inconclusive: 39.8 µM [inhibitor, partial curve, poor fit] | –
41 | COC(=O)CCCCC1SCC(NC(=O)c2ccccc2)C1Cl (configuration not stated) | – | inactive: -41.3% [at 102 µM]
42 | CCOc1ccc(CCNC(=O)c2cc3c(-c4ccc(OC)c(OC)c4)nn(C)c3s2)cc1OCC | inconclusive: 8.91 µM [inhibitor, partial curve, poor fit] | –
